Measured values as given in PubChem BioAssay AID1963318 (National Center for Advancing Translational Sciences (NCATS), 2024).
Out of some 1,300 compounds screened, about 100 (7.7%) were called active. This list was built around the results that the source calls inconclusive (neither active nor inactive); the mix of calls is not that of the screen. Calls follow the shape of the dose curve; as a rule, active = well fitted activation curve with a large enough effect; inconclusive = small, poorly fitted or top-dose-only effect; inactive = no such curve, though single readings can be large or run the other way. Potencies of inconclusive entries are doubtful fits and often do not repeat.

Each compound was assayed against Luciferin 4-monooxygenase (Photinus pyralis) (UniProt P08659) (assay: Firefly luciferase (FLuc-C-HiBiT) SDR gain of signal screen - without ATP). Conditions: Purified FLuc-C-HiBiT, Nano-Glo HiBiT luminescence, no ATP; series mostly up to 32.7 µM; activation (signal gain): at the top concentration.
Source text: PI: James Inglese Ph.D. National Center for Advancing Translational Sciences (NCATS), National Institute of Health (NIH), Maryland Discovery and optimization of novel protein-binding ligands underlies many of the methods and applications of biology, drug discovery, clinical diagnostics, and environmental toxicology. Assays for detecting the interaction of, for example, a molecule with a macromolecular target also referred to here as the target of interest (TOI) is dependent on a compatible output technology. Depending on the nature and knowledge surrounding the TOI, whether a receptor, enzyme, regulatory subunit or scaffold, or a sequence-defined nucleic acid folded into a complex tertiary structure, assay strategies can vary widely. Here we exploit ligand-biased changes in the structural dynamics of the target protein to control reporter alpha complementation allowing a non-competitive, non-functional, non-separation measure of ligand-target interaction. […] Secondly, we show the specificity and sensitivity of the SDR for the Abelson tyrosine kinase (ABL1) compared to the serine/threonine protein kinase A, using an enriched chemical library of 128 compounds selected, in part, for activity annotated with ABL1 kinase activity using the Pharos database (3). References: (1) A. S. Dixon et al., NanoLuc Complementation Reporter Optimized for Accurate Measurement of Protein Interactions in Cells. ACS Chem Biol 11, 400-408 (2016). […] Chemistry & Biology, 19, 1060 - 1072 (2012). (3) K. J. Kelleher et al., Pharos 2023: an integrated resource for the understudied human proteome. Nucleic Acids Res 51, D1405-D1416 (2023).
1. Reagent. Dispense 4 uL FLuc-C-HiBiT enzyme-buffer solution per well at a final enzyme concentration of 10 nM with or without 10 uM ATP into columns 2-48 of white, solid bottom medium bind 1536-well plates (Greiner Bio-One) by BioRaptr 2. Dispense respective buffer without enzyme at 4 uL/well in column 1 of assay plates. 2. Compounds. Library compounds and PTC124 control added at 23 nL per well, transfer by Pin Tool. 3. Incubation. Incubate enzyme and compounds at room temperature for >30 min, protect from light. 4. Reagent. (SDR assay) Add 3 uL/well of Nano-Glo HiBiT reagent (Promega) to assay plates for SDR assay without ATP. 5. Incubation. Incubate enzyme and substrate or detection reagent at room temperature for 5-10 min, protect from light. 6. Detector. HiBiT SDR assay measured using CCD-based camera (ViewLux) with settings as follows: Exposure, 1 sec; Gain, High; Speed, Slow; Binning, 2X. REFERENCES: Inglese J, Shamu CE and Guy RK, Reporting data from high throughput screening of small molecule libraries, Nature Chemical Biology, 2007, 3(8): 438-441. doi.org/10.1038/nchembio0807-438.
Also: nearly all actives have a fitted effect of over 55% in size.
Potency is read from the fitted curve at half-maximal effect; tags tell the direction and shape of the fitted curve.

Sequence of UniProt P08659 (P08659 whole entry, looked up): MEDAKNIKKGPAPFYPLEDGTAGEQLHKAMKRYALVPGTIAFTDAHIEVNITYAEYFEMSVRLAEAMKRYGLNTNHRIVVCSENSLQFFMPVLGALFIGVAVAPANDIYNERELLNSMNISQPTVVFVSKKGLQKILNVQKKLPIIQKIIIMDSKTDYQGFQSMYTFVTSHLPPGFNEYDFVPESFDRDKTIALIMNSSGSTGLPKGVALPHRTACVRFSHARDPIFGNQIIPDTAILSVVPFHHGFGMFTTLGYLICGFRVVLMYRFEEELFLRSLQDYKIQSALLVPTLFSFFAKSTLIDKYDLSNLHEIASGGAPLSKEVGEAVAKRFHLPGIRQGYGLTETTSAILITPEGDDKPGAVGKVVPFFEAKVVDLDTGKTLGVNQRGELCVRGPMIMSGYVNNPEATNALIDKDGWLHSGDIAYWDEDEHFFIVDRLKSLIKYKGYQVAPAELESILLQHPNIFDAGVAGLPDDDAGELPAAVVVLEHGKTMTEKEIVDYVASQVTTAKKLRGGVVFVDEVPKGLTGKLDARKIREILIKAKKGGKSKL

Row | SMILES | Potency | activation (signal gain)
1 | Oc1ccccc1CN1CCNc2cc(-c3ccccc3)ncc2C1 | inconclusive: 22.7 µM [activator, partial curve, poor fit] | 
2 | Clc1ccccc1Cc1cn2cc(-c3ccccc3)nc2s1 | inconclusive: 0.989 µM [activator, full curve] | 
3 | O=C(Nc1cccc(Br)c1)c1cc(-c2ccc3c(c2)OCCO3)on1 | inconclusive: 5.56 µM [activator, partial curve] | 
4 | O=C(Nc1cc(F)cc(F)c1)Nc1cccc(-c2ccc(N3CCOCC3)nn2)c1 | inconclusive: 9.89 µM [activator, partial curve, poor fit] | 
5 | Cc1ccc(-c2cc3c(=O)n(CCNC(=O)c4cccc(C#N)c4)ccn3n2)c(C)c1 | inconclusive: 4.42 µM [activator, partial curve] | 
6 | O=C(Nc1cccc(-c2ccc(N3CCOCC3)nn2)c1)Nc1cc(F)ccc1F | inconclusive: 12.4 µM [activator, partial curve] | 
7 | Cn1ccnc1CN1C(=O)CO[C@H](c2ccc(NC(=O)Nc3ccccc3)cc2)[C@H]1CO |  | inactive: 17.8%
8 | Cc1ccc(NC(=O)Nc2ccc(C)n(CC(=O)NC(C)(C)C)c2=O)cc1 | inconclusive: 9.89 µM [activator, partial curve] | 
9 | Cc1ccc(OCc2nc(C3CN(C(=O)c4n[nH]c5ccccc45)C3)no2)cc1 | inconclusive: 15.7 µM [activator, single point] | 
10 | O=C(NCc1ccc(F)cc1)Nc1cccc(-c2ccc(N3CCOCC3)nn2)c1 | inconclusive: 7.85 µM [activator, partial curve] | 
11 | CCOC(=O)c1ccc(NC(=O)CSc2nnc(CNC(=O)c3ccc(OC)cc3)n2CC)cc1 |  | inactive: 14.7%
12 | O=C(Nc1ccc(F)c(Cl)c1)C1CCN(C(=O)c2ncn3c2COC(c2ccccc2)C3)CC1 (configuration not stated) |  | inactive: 12.6%
13 | CCOc1ncccc1C(=O)OCC(=O)Nc1ccc(-c2nc3ccc(C)cc3s2)cc1 |  | inactive: 21.9% [at 65.7 µM]
14 | Cn1cc(-c2cnc(Nc3ccc(N4CCOCC4)cc3)c3c2CCO3)cn1 | inconclusive: 18 µM [activator, partial curve] | 
15 | O=C(c1cc(-c2ccc(F)cc2)nc2ccccc12)N1CCC(c2nc(C3CCOCC3)no2)C1 (configuration not stated) | inconclusive: 15.7 µM [activator, partial curve] | 
16 | O=C(O)c1cccc2c1CCN2C(=O)c1ccccc1 |  | inactive: 14.8%
17 | O=C(Nc1cccc(-c2nc3ccccc3s2)c1)N1CCC(O)C1 (configuration not stated) | inconclusive: 19.7 µM [activator, partial curve, poor fit] | 
18 | COc1ccc(-c2nc3ccccc3s2)cc1NC(=O)c1cccc(F)c1 |  | inactive: 9.49%
19 | O=C(NCCC1CCCCC1)c1c[nH]c2ncccc12 | inconclusive: 22.7 µM [activator, partial curve, poor fit] | 
20 | O=C(Nc1nc2c(s1)CCCC2)c1ccccc1F | inconclusive: 5.56 µM [activator, partial curve] | 
21 | CC(C)c1ccc(NC(=O)c2ccc(CN3C(=O)NC4(CCOCC4)C3=O)cc2)cc1 | inconclusive: 12.4 µM [activator, partial curve, poor fit] | 
22 | OCCN1CCN(c2nc(N3CCCCC3)c3cnn(-c4ccc(Cl)cc4)c3n2)CC1 |  | inactive: 11.8%
23 | COc1ccccc1-c1noc(-c2ccc(N3CCN(C)CC3)c([N+](=O)[O-])c2)n1 | inconclusive: 2.79 µM [activator, partial curve] | 
24 | O=C(NCCc1ccccc1)c1ccc2c(c1)nc1n2CCOC1 | inconclusive: 14 µM [activator, partial curve] | 

Row | SMILES | Potency | activation (signal gain)
25 | COc1cccc(CN2CCc3c(cc(C(=O)Nc4cc(C)ccc4OC)n3C)C2)c1 |  | inactive: 11.8%
26 | O=S(=O)(c1cccc(Cl)c1)n1c(/C=C/c2ccccc2Cl)nc2ccccc21 | active: 1.57 µM | 
27 | COc1ccc(NC(=O)C2CCN(C(=O)c3ncn4c3COC(c3ccccc3)C4)CC2)cc1Cl (configuration not stated) |  | inactive: 14.8%
28 | COc1ccc(NC(=O)Nc2cccc(-c3ccc(N4CCOCC4)nn3)c2)cc1Cl | inconclusive: 14 µM [activator, partial curve] | 
29 | COc1ccc(CN(C(=O)c2cc3ccccc3oc2=O)C2CCS(=O)(=O)C2)cc1OC (configuration not stated) |  | inactive: 19.6%
30 | COc1cccc(Nc2cc3c(cn2)CN(C(C)=O)CCN3)c1 | inconclusive: 20.2 µM [activator, partial curve] | 
31 | Fc1ccc(Cc2cn3cc(-c4ccccc4)nc3s2)cc1 | inconclusive: 2.79 µM [activator, full curve] | 
32 | CCC(CC)c1nn2cc(-c3ccccc3)nc2s1 | inconclusive: 11.1 µM [activator, partial curve] | 
33 | CCCNC(=O)c1cccc2c1CCN2C(=O)Nc1cccc(C)c1 | inconclusive: 11.1 µM [activator, partial curve] | 
34 | COc1cc(NC(=O)c2ccc(-c3ncn[nH]3)cc2)ccc1NC(=O)C(C)(C)C |  | inactive: 18.2%
35 | COc1ccc(C(=O)Nc2ccc(-c3nc4ccccc4s3)cc2C)cc1Cl |  | inactive: 10.3%
36 | Cc1ccc(C(=O)Nc2onc3c2CCCC3)cc1 | inconclusive: 12.4 µM [activator, partial curve] | 
37 | COc1ccc(-c2cn3nc(N4CCCC(C(=O)NCc5ccccc5OC)C4)sc3n2)cc1 (configuration not stated) |  | inactive: 14.6%
38 | COc1ccc(C(=O)Nc2noc3ccccc23)cc1 | active: 9.89 µM | 
39 | CC(C)(C)CN1CCNc2cc(Nc3cccnc3)ncc2C1 | inconclusive: 18 µM [activator, partial curve, poor fit] | 
40 | Cn1ccnc1CN1CCc2nc(C(=O)Nc3ccccc3)oc2CC1 |  | inactive: 18.4% [at 49.3 µM]
41 | CCS(=O)(=O)c1ccccc1C(=O)Nc1ccc(-c2nc3ccccc3s2)cc1 |  | inactive: 19.5%
42 | Cc1cnc(NC(=O)c2ccc3c(c2)OCC(=O)N(C)C3)s1 | inconclusive: 9.04 µM [activator, partial curve] | 
43 | CCCc1nn2cc(-c3ccc(C)c(C)c3)nc2s1 | inconclusive: 11.1 µM [activator, partial curve] | 
44 | Cc1ccccc1CCNC(=O)c1ccc2c(c1)nc1n2CCCCC1 | active: 2.79 µM | 
45 | Cc1ccc2sc(-c3ccc(N)cc3)nc2c1 | active: 3.13 µM | 
46 | Cc1ccc(-c2cc3c(=O)n(CCNC(=O)c4cccnc4)ccn3n2)c(C)c1 |  | inactive: 30.3%
47 | C[C@@H]1C(=O)O[C@H]2[C@H]1CC[C@@]1(C)Cc3sc(NC(=O)COCC(=O)O)nc3[C@@H](C)[C@H]21 | active: 4.53 µM | 
48 | Cn1ccnc1CN1CCNc2cc(Nc3ccccc3)ncc2C1 |  | inactive: 25.9% [at 49.3 µM]

Row | SMILES | Potency | activation (signal gain)
49 | O=C(Nc1ccc2c(c1)OCCO2)N1CCC2(CC1)CC(N1CCCC1)CCO2 (configuration not stated) |  | inactive: 28.6%
50 | Cc1ccc2nc(-c3ccc(NC(=O)COc4ccccc4C(C)(C)C)cc3)sc2c1 |  | inactive: 19.1%
51 | COc1ccccc1CN1CCc2nc(C(=O)Nc3ccccc3)oc2CC1 |  | inactive: 17.2% [at 49.3 µM]
52 | Cc1ccc(Nc2ncnc3c2nc2n3CCCC2)c(Br)c1 | inconclusive: 12.4 µM [activator, partial curve] | 
53 | CCNC(=O)N[C@@H]1C=C[C@@H](c2c(C)nn(-c3ccc(F)cc3)c2C)C1 |  | inactive: 26.4% [at 49.3 µM]
54 | COc1ccc(C(=O)N2CCCC(c3nc(-c4ccccc4)no3)CCNC(=O)CC2)c(OC)n1 (configuration not stated) |  | inactive: 17.4%
55 | CNc1ccc(-c2nc3ccccc3s2)cc1 | active: 1.76 µM | 
56 | COCCOc1nc(N)c2[nH]c(=O)n(Cc3ccc(C(=O)O)cc3)c2n1 |  | inactive: 12.1% [at 11.8 µM]
57 | COc1ccc(C(=O)NCCC2CCN(C(=O)Nc3cc(F)cc(F)c3)CC2)cc1 | inconclusive: 17.6 µM [activator, partial curve, poor fit] | 
58 | O=C1c2cnc(-c3cccc(F)c3)nc2OCCN1c1ccccc1 | inconclusive: 22.7 µM [activator, partial curve] | 
59 | NC(=O)C1CCCN(c2ncnc3c2cnn3-c2ccccc2)C1 (configuration not stated) | inconclusive: 14 µM [activator, partial curve] | 
60 | CCOc1ccc(-c2cc3c(=O)n(CCNC(=O)c4cccc5[nH]ccc45)ccn3n2)cc1 | inconclusive: 14 µM [activator, partial curve] | 
61 | O=C(Nc1ccccc1)c1nc2c(o1)CCN(Cc1cccnc1)CC2 | inconclusive: 20.2 µM [activator, partial curve] | 
62 | Cc1ccc(Cc2cn3cc(-c4ccccc4)nc3s2)cc1 | inconclusive: 1.24 µM [activator, full curve, poor fit] | 
63 | COc1cccc(-c2noc(Nc3ccc(OC)c(OC)c3)n2)c1 | inconclusive: 15.7 µM [activator, partial curve, poor fit] | 
64 | Cc1c(NC(=O)Cc2ccccc2)cccc1-c1nc2ccccc2s1 | inconclusive: 0.785 µM [activator, full curve, poor fit] | 
65 | Nc1cccc(-c2ccc(N3CCCCC3)nn2)c1 | active: 1.57 µM | 
66 | Nc1ccc(-c2nc3ccccc3s2)cc1 | inconclusive: 12.4 µM [activator, partial curve] | 
67 | O=C1c2cnc(-c3ccc(F)cc3)nc2OCCN1CC1CC1 | inconclusive: 25.5 µM [activator, partial curve, poor fit] | 
68 | CCc1ccc(Nc2nc(-c3ccccc3F)no2)cc1 |  | inactive: 19.7%
69 | CCN1CCN(CCNC(=O)c2cccc3c2CCN3C(=O)Nc2ccc(C)cc2)CC1 | inconclusive: 14 µM [activator, partial curve, poor fit] | 
70 | COc1ccccc1NC(=O)CN1C(=O)CC(c2ccc(C)c(C)c2)=Nc2ccccc21 |  | inactive: 19.4%
71 | CN1c2cc(C(=O)Nc3ccc4c(c3)OCCO4)ccc2C(=O)N2CCCCC21 (configuration not stated) | inconclusive: 11.1 µM [activator, partial curve, poor fit] | 
72 | Cc1cccn2c(=O)c(C(=O)NCCc3ccccc3)cnc12 | inconclusive: 19.7 µM [activator, partial curve, poor fit] | 
